Here are results for six cell lines from the supplement of paper PMC4967469.

Holding throughout (assay): Viability of human cancer cell lines after 72 h of drug (GDSC screen)
Compound in one experiment: NC(=O)c1cccc(-c2cc(Nc3ccc(OC(F)(F)F)cc3)ncn2)c1 [GNF-2]
Conditions: top dose 1.28 µM; top dose inferred. The method, then: (§1)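 Human cancer cell lines in 384-well plates, medium with 10% serum, drug for 72 h over a 256-fold dose range (nine 2-fold or five 4-fold steps up to the top dose). Adherent lines were fixed and stained with the nucleic acid dye Syto60, suspension lines read with resazurin; signal relative to control wells, capped at 0 and 100%. One two-parameter sigmoid per drug and line, fitted in a mixed model over all curves with the slope shared within a line.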

Compound in a further experiment: O=S(=O)(c1ccccc1)N(CC(F)(F)F)c1ccc(C(O)(C(F)(F)F)C(F)(F)F)cc1 [T0901317]
Conditions: top dose 10.24 µM; top dose inferred. The method, then:
as §1

Compound in another experiment: Cc1ccc(Nc2cc(-c3cccc(N4C(=O)c5ccccc5C4=O)c3)ncn2)cc1NS(C)(=O)=O [KIN001-270]
Conditions: top dose 20 µM; top dose inferred. The method, then: as §1

Compound in another experiment: CC(O)(CS(=O)(=O)c1ccc(F)cc1)C(=O)Nc1ccc(C#N)c(C(F)(F)F)c1 [Bicalutamide]
Conditions: top dose inferred. As for the experimental part:
as §1

Compound in the next experiment: Nc1ccn([C@@H]2O[C@H](CO)[C@@H](O)C2(F)F)c(=O)n1 [Gemcitabine]
Conditions: top dose 1.024 µM. As for the experimental part:
as §1

Compound in a further experiment: Cc1cn(-c2cc(NC(=O)c3ccc(C)c(Nc4nccc(-c5cccnc5)n4)c3)cc(C(F)(F)F)c2)cn1 [Nilotinib]
Conditions: top dose 2 µM. As for the experimental part: as §1

Compound in the next experiment: S=C(NCc1ccc2c(c1)OCO2)N1CCN(c2ncnc3c2oc2ccccc23)CC1 [MP470]
Conditions: top dose 20 µM; top dose inferred. The method, then: as §1

Compound in a further experiment: CCNC(=O)c1noc(-c2cc(C(C)C)c(O)cc2O)c1-c1ccc(CN2CCOCC2)cc1 [AUY922]
Conditions: top dose 0.256 µM; top dose inferred. As for the experimental part:
as §1

Compound in the next experiment: C/C(O)=C(\C#N)C(=O)Nc1cc(Br)ccc1Br [LFM-A13]
Conditions: top dose 16 µM; top dose inferred. The method, then:
as §1

Compound in the next experiment: CC(C)c1ccccc1Cc1cc(C(=O)Nc2ccc(S(=O)(=O)c3ccccc3C(C)(C)C)cc2)c(O)c(O)c1O [TW-37]
Conditions: top dose 5 µM. As for the experimental part:
as §1

Setting [1] is: top dose 1.024 µM, screen: GDSC drug entry 150.
Where [2] appears, read: top dose 10 µM, screen: GDSC drug entry 1502.

Lines with a small IC50 respond at low doses; a fit beyond the top or the lowest dose is shown as a bound at that dose. AUC, from the same fit, is the share of area under the viability curve across the 256-fold dose range: 1 means no effect, lower means more sensitive. For part of these data: Any top dose called inferred comes from the curve model; the source does not state it. For part of these data: Drugs with an entry number were screened twice under separate entries, and the two screens often disagree.

TE-11 (oesophagus, adherent): the AUC in the experiment with GNF-2 is 0.985; with T0901317, 0.981; with KIN001-270 it was 0.988; with Bicalutamide (setting [1]), 0.985; in the experiment with Bicalutamide (setting [2]) it was 0.987; with Gemcitabine it was 0.941. In addition, the AUC was 0.978 with Nilotinib; 0.964 with MP470; 0.862 with AUY922; 0.978 in the experiment with LFM-A13; 0.523 with TW-37. The IC50 (commonly the concentration at which inhibition is half-maximal) in the experiment with GNF-2 was more than 1280 nM; in the experiment with T0901317 it was more than 10200 nM; with KIN001-270 it was more than 20000 nM; in the experiment with Bicalutamide (setting [1]), more than 1020 nM; in the experiment with Bicalutamide (setting [2]), more than 10000 nM; with Gemcitabine, more than 1020 nM. Moreover, the 50% inhibitory concentration (IC50) was more than 2000 nM with Nilotinib; more than 20000 nM in the experiment with MP470; 189 nM with AUY922; more than 16000 nM with LFM-A13; 360 nM with TW-37.

Turning to “NCI-H847 (small cell lung carcinoma, adherent)”, the AUC came out at 0.993 with GNF-2; 0.9 with T0901317; 0.937 in the experiment with KIN001-270; 0.993 in the experiment with Bicalutamide (setting [1]); 0.992 with Bicalutamide (setting [2]); 0.437 with Gemcitabine. For the same cell line, the AUC was 0.993 in the experiment with Nilotinib; 0.848 with MP470; 0.788 with AUY922; 0.992 with LFM-A13; 0.404 with TW-37. Moreover, the IC50 is more than 1280 nM with GNF-2; 8670 nM with T0901317; more than 20000 nM with KIN001-270; more than 1020 nM with Bicalutamide (setting [1]); more than 10000 nM in the experiment with Bicalutamide (setting [2]); 44.5 nM with Gemcitabine. Moreover, the IC50 was more than 2000 nM with Nilotinib; 10800 nM with MP470; 89.9 nM with AUY922; more than 16000 nM in the experiment with LFM-A13; 180 nM with TW-37.

Consider DND-41 (T-cell leukaemia, suspension), for which the AUC in the experiment with GNF-2 worked out at 0.99; with T0901317 it was 0.973; in the experiment with KIN001-270, 0.944; in the experiment with Bicalutamide (setting [1]), 0.986; with Bicalutamide (setting [2]), 0.98; in the experiment with Gemcitabine it was 0.429. The AUC in the experiment with Nilotinib is 0.973; with MP470, 0.835; with AUY922, 0.527; with LFM-A13, 0.93; with TW-37, 0.731. In addition, the IC50 with GNF-2 is more than 1280 nM; with T0901317, more than 10200 nM; in the experiment with KIN001-270, more than 20000 nM; with Bicalutamide (setting [1]) it was more than 1020 nM; with Bicalutamide (setting [2]), more than 10000 nM; in the experiment with Gemcitabine, 41.9 nM. The IC50 with Nilotinib is more than 2000 nM; with MP470 it was 11000 nM; with AUY922, 18.8 nM; in the experiment with LFM-A13, more than 16000 nM; with TW-37, 1290 nM.

“NCI-H1975 (lung adenocarcinoma, adherent)”: the AUC is 0.983 in the experiment with GNF-2; 0.966 in the experiment with T0901317; 0.978 with KIN001-270; 0.983 with Bicalutamide (setting [1]); 0.971 with Bicalutamide (setting [2]); 0.413 with Gemcitabine. The AUC stood at 0.981 in the experiment with Nilotinib; 0.934 with MP470; 0.409 in the experiment with AUY922; 0.968 with LFM-A13; 0.599 with TW-37. Moreover, the IC50 was more than 1280 nM with GNF-2; more than 10200 nM in the experiment with T0901317; more than 20000 nM with KIN001-270; more than 1020 nM with Bicalutamide (setting [1]); more than 10000 nM with Bicalutamide (setting [2]); 35.7 nM with Gemcitabine. Further, the IC50 is more than 2000 nM with Nilotinib; more than 20000 nM in the experiment with MP470; 8.66 nM in the experiment with AUY922; more than 16000 nM with LFM-A13; 609 nM with TW-37.

On to TUR (B-cell lymphoma, suspension), for which the AUC stood at 0.988 with GNF-2; 0.904 with T0901317; 0.954 with KIN001-270; 0.988 with Bicalutamide (setting [1]); 0.972 in the experiment with Bicalutamide (setting [2]); 0.401 in the experiment with Gemcitabine. Further, the AUC with Nilotinib turned out to be 0.972; with MP470, 0.814; in the experiment with AUY922, 0.62; with LFM-A13 it was 0.988; with TW-37 it was 0.513. The IC50 with GNF-2 is more than 1280 nM; in the experiment with T0901317, more than 10200 nM; with KIN001-270 it was more than 20000 nM; with Bicalutamide (setting [1]), more than 1020 nM; with Bicalutamide (setting [2]), more than 10000 nM; in the experiment with Gemcitabine, 35 nM. Moreover, the IC50 is more than 2000 nM with Nilotinib; 9900 nM with MP470; 33.3 nM with AUY922; more than 16000 nM in the experiment with LFM-A13; 338 nM in the experiment with TW-37.

As to LB373-MEL-D (melanoma, adherent), the AUC with GNF-2 was 0.967; with T0901317, 0.983; in the experiment with KIN001-270, 0.975; in the experiment with Bicalutamide (setting [1]) it was 0.99; in the experiment with Bicalutamide (setting [2]), 0.989; in the experiment with Gemcitabine, 0.815. Also, the AUC with Nilotinib was determined as 0.99; with MP470, 0.946; in the experiment with AUY922 it was 0.868; in the experiment with LFM-A13 it was 0.988; with TW-37, 0.746. The half-maximal inhibitory concentration (IC50) with GNF-2 is more than 1280 nM; with T0901317, more than 10200 nM; with KIN001-270, more than 20000 nM; with Bicalutamide (setting [1]), more than 1020 nM; in the experiment with Bicalutamide (setting [2]) it was more than 10000 nM; with Gemcitabine, 547 nM. For the same cell line, the half-inhibitory concentration (IC50) in the experiment with Nilotinib was more than 2000 nM; with MP470, more than 20000 nM; with AUY922 it was 224 nM; in the experiment with LFM-A13 it was more than 16000 nM; in the experiment with TW-37, 1560 nM.
